The whole screen tested about 52,000 compounds, of which about 4,300 (8.3%) were called active. No stated cut-off is given here; in the data, active means survival mostly below about 52% (no sharp cut-off); inactive means mostly above about 56%. The list shows a part of the results.
These compounds were tested on DeltatarO mutant (assay: S. aureus survival, RN4220 and DeltatarO strains – OD600, teichoic acid synthesis inhibitors, primary screen (AID 463173)). Details: S. aureus RN4220 wild type/DeltatarO growth, OD600, 18 h, active compounds read low, screened at 18.75 µg/mL (by protocol).

| Compound | survival |
| --- | --- |
| COc1ccccc1CNC(=O)c1cnn2c(C)c(Cc3ccc(F)cc3)c(C)nc12 | inactive: 69% |
| Cc1ccc(C(c2sc3nc(-c4ccco4)nn3c2O)N2CCN(Cc3ccccc3)CC2)cc1 (stereo unspecified) | inactive: 112% |
| Cc1ccc(-c2nc3cc(Cl)ccc3o2)cc1NC(=O)COc1ccc(F)cc1 | inactive: 53% |
| Cc1cc(=O)[nH]c(SCC(=O)N(c2ccccc2)c2ccccc2)n1 | inactive: 54% |
| O=C(Cn1c(=O)oc2cc(S(=O)(=O)NC3CCCC3)ccc21)Nc1ccc(F)c(F)c1 | inactive: 73% |
| CCC(Oc1ccccc1)C(=O)Nc1nccs1 (stereo unspecified) | inactive: 79% |
| COC(=O)c1cc2nc(C)cc(C(F)(F)F)n2n1 | inactive: 97% |
| Cc1ccc(Cl)cc1N1CCN(S(=O)(=O)c2cc3[nH]c(=O)c(=O)[nH]c3cc2C)CC1 | inactive: 67% |
| Cc1c(C(=O)N2CCC(C)CC2)c(S(=O)(=O)N2CCN(c3ccc(Cl)cc3)CC2)c(C)n1C | inactive: 68% |
| CCOc1ccccc1NC(=O)Cn1nnc(C(=O)Nc2ccc(C)c(C)c2)c1N | inactive: 61% |
| CC(C)(C)OC(=O)N1CCC(c2c(C(=O)NC3CCCCC3)cnn2-c2cccc(Cl)c2)CC1 | inactive: 69% |
| Cc1ccc(Cl)cc1N1CCN(C(=O)C2CCN(Cc3nc(-c4ccc(Cl)cc4)oc3C)CC2)CC1 | active: -9% |
| CC1CCCN(CCCNC(=O)CN2C(=O)CSc3ccc(S(=O)(=O)N4CCOCC4)cc32)C1 (stereo unspecified) | inactive: 117% |
| COc1ccc(-c2nc3sc(CCNC(=O)C(=O)Nc4c(C)cccc4C)c(C)n3n2)cc1 | inactive: 87% |
| COc1ccc(N2CCN(C(=O)c3oc4ccccc4c3NC(=O)c3ccccc3OC)CC2)cc1 | inactive: 131% |
| CC(C)C(=O)OCc1cc(=O)n2nc(C3CCCCC3)sc2n1 | inactive: 74% |
| Cc1ccc(NC(=O)CSc2nnc(N)s2)c(C)c1 | inactive: 131% |
| COc1ccc(CNC(=O)C2CCN(S(=O)(=O)c3cccc4nonc34)CC2)cc1OC | inactive: 78% |
| CCc1ccc(NCc2cc3cc4c(cc3n(CC(=O)Nc3ccc(F)cc3)c2=O)OCCO4)cc1 | inactive: 73% |

| Compound | survival |
| --- | --- |
| Cc1ccccc1CS(=O)(=O)Cc1ccc(C(=O)NCc2ccc(F)cc2)o1 | active: 47% |
| COc1ccc(N(C)C(=O)c2ccc3c(c2)nnn3C)cc1 | inactive: 75% |
| COc1cccc(NC(=O)CCNC(=O)Cn2ccc3ccccc3c2=O)c1 | inactive: 63% |
| Cc1ccc(NC(=O)Cn2c(=O)ccc3cc(S(=O)(=O)N4CCC(C)CC4)ccc32)cc1Cl | inactive: 74% |
| COc1cccc(OCc2nc3ccccc3n2CCOc2cccc(C)c2)c1 | active: 44% |
| N#Cc1cnc(SCc2ccccc2)nc1N | active: 39% |
| O=C(NCCc1ccccc1)c1cc(Sc2ccc(F)cc2F)nc2ccccc12 | inactive: 98% |
| COc1ccccc1N1CCN(C(CNC(=O)C(=O)NCCc2ccccc2)c2cccnc2)CC1 (stereo unspecified) | inactive: 72% |
| Cc1ccccc1CN1CCCN(CC(=O)Nc2c(C)cccc2C)S1(=O)=O | inactive: 93% |
| Cc1cccc(CS(=O)(=O)c2ncc(Cl)c(C(=O)NCc3ccccc3)n2)c1 | active: -1% |
| COc1ccc(NS(=O)(=O)c2ccc3[nH]c4c(c3c2)CCCCCC4)cc1 | active: -2% |
| CCC(C(=O)Nc1ccc(C(C)=O)cc1)n1c(C)c2cnn(-c3ccccc3)c(=O)c2c1C (stereo unspecified) | inactive: 86% |
| Fc1ccc(CNc2nc(-c3ccccc3)cc(C(F)(F)F)n2)cc1 | active: 4% |
| Cn1ccnc1SCC(=O)Nc1cc(Cl)ccc1Cl | inactive: 68% |
| CCCCNC(=O)CCc1c(C)nc2c(c(C)nn2-c2ccccc2)c1C | inactive: 72% |
| CCN(CC)c1ccc(C2C(C(N)=O)=C(C)Nc3ncnn32)cc1 (stereo unspecified) | inactive: 66% |
| Cc1ccc(NC(=O)C2CCCN2S(=O)(=O)c2cccc3cccnc23)cc1C (stereo unspecified) | inactive: 68% |
| Cc1cc(-n2c(C)nc3ccccc3c2=O)ccc1NC(=O)c1cccc([N+](=O)[O-])c1 | inactive: 92% |
| Cc1cccc(NC(=O)CSc2cc(C)c3ccccc3n2)c1 | inactive: 47% |

| Compound | survival |
| --- | --- |
| CC(C)CNC(=O)C1=CC(c2ccc3c(c2)OCO3)=NS(=O)(=O)N1C | inactive: 86% |
| Cc1ccc(Cn2c(CNC(=O)c3ccccc3Br)nc3cccnc32)cc1 | inactive: 120% |
| COc1ccc(N2CCN(C(=O)Nc3cccc(C(F)(F)F)c3)CC2)cc1 | inactive: 150% |
| Cc1ccc(-n2c(=O)c3oc4ccccc4c3n(CC(=O)Nc3ccccc3)c2=O)cc1C | inactive: 54% |
| CCOc1cc(C2c3c(-c4ccccc4O)n[nH]c3C(=O)N2CCc2ccccc2)ccc1O (stereo unspecified) | active: 29% |
| CNC(=O)COc1ccc(Nc2nnc(-c3ccc(C)c(S(=O)(=O)NC(C)(C)C)c3)c3ccccc23)cc1 | inactive: 85% |
| COc1cc(NC(=O)Cn2cc(S(=O)(=O)c3ccccc3)c(=O)c3ccccc32)cc(OC)c1 | inactive: 57% |
| COc1ccc(-c2cc(C(F)(F)F)nc(SCCC(=O)Nc3c(C)cccc3C)n2)cc1 | inactive: 76% |
| CCc1ccc(C2c3c(oc4ccc(C)cc4c3=O)C(=O)N2c2nc(C)c(C)s2)cc1 (stereo unspecified) | inactive: 178% |
| O=C(Cn1cnc2scc(-c3ccccc3)c2c1=O)NCc1ccco1 | inactive: 60% |
| Cc1ccc(OCC(=O)Nc2ccc(C(=O)OCc3cc(=O)n4c(C)csc4n3)cc2)cc1 | inactive: 124% |
| COc1ccc(-c2onc(C)c2C)cc1S(=O)(=O)NC1CCC(C)CC1 (stereo unspecified) | inactive: 84% |
| O=C(CN(c1ccccn1)S(=O)(=O)c1ccccc1)N=Nc1c(O)[nH]c2ccccc12 | inactive: 71% |
| O=C(CSc1nc(=O)[nH]c2c1CCC2)NCc1ccccc1 | inactive: 67% |
| Cc1ccc(C(=O)COC(=O)CCC(=O)Nc2ccc(Oc3ccccc3)cc2)cc1C | inactive: 70% |
| Oc1c(C(c2ccccc2)N2CCN(c3ccccc3)CC2)sc2nc(-c3ccco3)nn12 (stereo unspecified) | inactive: 117% |
| COC(=O)CSc1nnc(CNc2ccc(Cl)cc2)n1-c1ccc(OC)cc1 | inactive: 86% |
| CCOC(=O)c1c(NC(=O)c2cc(-c3ccc(OC)cc3)on2)sc(C)c1C | active: 45% |

— PubChem BioAssay AID463173 (ICCB-Longwood Screening Facility, Harvard Medical School, 2010)
